Measurements reported in publication PMC4336329 (PLoS ONE, 2015).
Among all 310,000 compounds or so, about 14,000 (4.5%) showed an effect of 50% or more. The effect is printed as a negative number. This is one part of the list.
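Note: peak tail current of the secondary pulse compared with the same well before compound.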

What follows are compounds tested against human ether-à-go-go-related gene (hERG) potassium channel (human, UniProt Q12809) (assay: primary screen, population patch clamp on CHO cells stably expressing hERG).
Chain of human ether-à-go-go-related gene (hERG) potassium channel (Q12809 whole entry, looked up): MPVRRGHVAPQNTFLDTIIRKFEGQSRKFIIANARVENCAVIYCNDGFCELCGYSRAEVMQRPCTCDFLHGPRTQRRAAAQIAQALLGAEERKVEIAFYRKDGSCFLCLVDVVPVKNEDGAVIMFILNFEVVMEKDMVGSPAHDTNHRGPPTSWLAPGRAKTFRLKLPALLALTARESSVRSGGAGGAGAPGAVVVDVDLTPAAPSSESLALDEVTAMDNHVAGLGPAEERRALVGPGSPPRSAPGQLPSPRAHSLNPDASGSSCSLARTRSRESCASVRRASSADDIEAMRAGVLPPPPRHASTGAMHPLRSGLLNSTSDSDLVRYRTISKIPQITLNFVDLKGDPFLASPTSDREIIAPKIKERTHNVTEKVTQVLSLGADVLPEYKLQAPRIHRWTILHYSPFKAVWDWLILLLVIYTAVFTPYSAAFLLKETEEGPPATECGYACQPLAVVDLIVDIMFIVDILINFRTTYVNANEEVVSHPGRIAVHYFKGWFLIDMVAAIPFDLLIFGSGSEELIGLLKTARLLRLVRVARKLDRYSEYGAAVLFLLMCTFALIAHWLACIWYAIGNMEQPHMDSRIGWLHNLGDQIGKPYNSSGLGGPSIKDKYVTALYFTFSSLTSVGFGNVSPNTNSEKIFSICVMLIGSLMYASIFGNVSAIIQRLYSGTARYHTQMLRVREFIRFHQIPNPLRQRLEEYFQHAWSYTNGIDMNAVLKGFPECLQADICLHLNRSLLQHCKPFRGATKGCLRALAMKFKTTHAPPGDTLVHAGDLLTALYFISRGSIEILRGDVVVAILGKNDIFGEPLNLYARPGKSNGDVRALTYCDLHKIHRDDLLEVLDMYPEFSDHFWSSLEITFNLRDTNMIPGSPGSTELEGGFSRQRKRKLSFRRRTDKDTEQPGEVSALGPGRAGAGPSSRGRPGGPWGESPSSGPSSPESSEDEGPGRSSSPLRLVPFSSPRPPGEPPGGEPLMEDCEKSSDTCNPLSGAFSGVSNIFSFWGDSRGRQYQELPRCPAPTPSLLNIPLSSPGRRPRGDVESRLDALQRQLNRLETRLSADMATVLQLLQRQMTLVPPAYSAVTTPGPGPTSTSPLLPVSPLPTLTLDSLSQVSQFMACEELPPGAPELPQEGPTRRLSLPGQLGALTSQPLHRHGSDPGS
In the case of `COc1ccc(N2CCN(c3cc(C)c4ccc(C)cc4n3)CC2)cc1`, the “hERG current change (%, negative = inhibition) at 10uM” value is reported as -40.5%. With `CC(NC(=O)CSc1n[nH]c(=O)n1C1CC1)C12CC3CC(CC(C3)C1)C2` (centres unmarked) the “hERG current change (%, negative = inhibition) at 10uM” value was -9.71%. `C=CCSc1nnc(NC(=O)c2cccc(S(=O)(=O)N3CCOCC3)c2)s1` was tested, and the “hERG current change (%, negative = inhibition) at 10uM” value was -11.1%. `C=CCNc1nc(Nc2ccc(OC)cc2)nc(OC)n1` was tested, and the “hERG current change (%, negative = inhibition) at 10uM” value was -11%. `O=C(O)c1ccccc1C(=O)NCCc1c(C(=O)O)[nH]c2ccc(Cl)cc12` was tested, and the “hERG current change (%, negative = inhibition) at 10uM” value was 7.84%. `COc1ccccc1NC(=O)c1ccc(COc2ccccc2OC)o1` was tested, and the “hERG current change (%, negative = inhibition) at 10uM” value was -0.515%. For `CC(=O)N1CCOc2ccc(S(=O)(=O)N3CCCCC3)cc21`, the “hERG current change (%, negative = inhibition) at 10uM” value was 11.6%. `COc1ccc(/C=C/C(=O)OCC(=O)NCCC2=CCCCC2)cc1OC` was tested, and the “hERG current change (%, negative = inhibition) at 10uM” value was -22%. `C/C(Cn1cnc([N+](=O)[O-])n1)=N\NC(=O)c1ccncc1` was tested, and the “hERG current change (%, negative = inhibition) at 10uM” value was 7.26%. `O=C(CSc1nnc(-c2cccnc2)o1)c1cc2ccccc2oc1=O` was tested, and the “hERG current change (%, negative = inhibition) at 10uM” value was 16.8%. In the case of `CC(C)(C)c1ccc(CNC(=O)C2CCCN2C(=O)Nc2ccccc2)cc1` (centres unmarked), the “hERG current change (%, negative = inhibition) at 10uM” value is reported as 1.67%. In the case of `C=CCOc1ccc2c(c1)c(S(=O)(=O)c1ccc(C)cc1)cn2COC`, the “hERG current change (%, negative = inhibition) at 10uM” value is reported as 2.15%. `CC1CCCN(CCOc2ccc(Br)cc2)C1` (centres unmarked) was tested, and the “hERG current change (%, negative = inhibition) at 10uM” value was -51.3%. For `O=C(Nc1ccccc1OC(F)F)c1cc2c(s1)CCC2`, the “hERG current change (%, negative = inhibition) at 10uM” value was -16.4%. For `COc1ccc(N2C(=O)C(CC(=O)Nc3ccc(Cl)cc3)N(NC(=O)c3cccc(F)c3)C2=S)cc1` (centres unmarked), the “hERG current change (%, negative = inhibition) at 10uM” value was 14%. In the case of `COc1ccc2nc(SCC(=O)c3c(N)n(C4CC4)c(=O)[nH]c3=O)[nH]c2c1`, the “hERG current change (%, negative = inhibition) at 10uM” value is reported as 7.85%. `CCc1c(C)c2ccc(O)c(CN3CCCC3)c2oc1=O` was tested, and the “hERG current change (%, negative = inhibition) at 10uM” value was 4.46%. For `COc1ccc2c(c1)C=C(CN1CCN(C3CCCC3)C(CCO)C1)CO2` (centres unmarked), the “hERG current change (%, negative = inhibition) at 10uM” value was -68.2%. In the case of `CNC(=S)N(CCc1ccc(OC)c(OC)c1)C1CC(=O)N(c2ccccc2)C1=O` (centres unmarked), the “hERG current change (%, negative = inhibition) at 10uM” value is reported as 8.95%. For `CC1CC(N(C(=O)C2CC2)c2ccccc2)c2ccccc2N1C(=O)C1CC1` (centres unmarked), the “hERG current change (%, negative = inhibition) at 10uM” value was -1.49%. `Cc1ccc(C(=O)O)cc1NC(=O)CN1C(=O)C2C3c4ccccc4C(Br)(c4ccccc43)C2C1=O` (centres unmarked) was tested, and the “hERG current change (%, negative = inhibition) at 10uM” value was 14.4%. With `COc1cc(/C=C(\C#N)C(=O)NC2CCCCC2C)ccc1OS(=O)(=O)c1ccc(C)cc1` (centres unmarked) the “hERG current change (%, negative = inhibition) at 10uM” value was -5.99%. In the case of `CCCC1=C(C(=O)OCC)C(c2cccs2)n2ncnc2N1` (centres unmarked), the “hERG current change (%, negative = inhibition) at 10uM” value is reported as -0.0931%. With `COc1ccc(CN2CCN(c3cccc(C)c3C)CC2)cc1OC` the “hERG current change (%, negative = inhibition) at 10uM” value was -72%. With `COCCCNC(=O)CC(NCCCOC)C(=O)O` (centres unmarked) the “hERG current change (%, negative = inhibition) at 10uM” value was 14.7%. For `Cc1ccc(C)c(NC(=O)c2cc3ccccn3n2)c1`, the “hERG current change (%, negative = inhibition) at 10uM” value was -18.7%. `O=c1ccc2cc(S(=O)(=O)N3CCN(c4ccccc4)CC3)ccc2o1` was tested, and the “hERG current change (%, negative = inhibition) at 10uM” value was -0.646%. For `Cc1cc(C)c(O)c(-c2cc(C(=O)Nc3cccnc3)[nH]n2)c1`, the “hERG current change (%, negative = inhibition) at 10uM” value was 5.85%. With `CC[N+](CC)(CCCCS(=O)(=O)[O-])CCNP1(=O)C=C(c2ccccc2)OC(c2ccccc2)=C1` the “hERG current change (%, negative = inhibition) at 10uM” value was 9.75%. With `Cc1[nH]nc2c1C1(C(=O)Nc3ccc([N+](=O)[O-])cc31)C(C#N)=C(N)O2` (centres unmarked) the “hERG current change (%, negative = inhibition) at 10uM” value was 24.9%. `O=C1CN(Cc2nc3cc(Cl)ccc3c(=O)[nH]2)CCN1` was tested, and the “hERG current change (%, negative = inhibition) at 10uM” value was 25.4%. `COc1cc(NC(=O)COc2ccc3c(C)cc(=O)oc3c2C)cc(OC)c1OC` was tested, and the “hERG current change (%, negative = inhibition) at 10uM” value was 20.4%. For `CCn1c2ccccc2n2c(=O)c(=O)n(CC(=O)Nc3ccc(C(C)C)cc3)nc12`, the “hERG current change (%, negative = inhibition) at 10uM” value was 5.64%. For `Brc1ccc(-c2nc(-c3ccncc3)no2)o1`, the “hERG current change (%, negative = inhibition) at 10uM” value was -4.37%. In the case of `CCCc1cc(=O)[nH]c(SCc2ccccc2)n1`, the “hERG current change (%, negative = inhibition) at 10uM” value is reported as 4.36%. With `CN1N=C(C(C)(C)C)CC1=O` the “hERG current change (%, negative = inhibition) at 10uM” value was -0.0653%. In the case of `COCC(=O)Nc1c(C(=O)Nc2ccccc2OC)oc2ccccc12`, the “hERG current change (%, negative = inhibition) at 10uM” value is reported as -8.05%. In the case of `NC(=O)Nc1ccccc1C(=O)Nc1ccc2ccccc2c1`, the “hERG current change (%, negative = inhibition) at 10uM” value is reported as 11.5%. With `Cc1ccc2c(C)nc(/N=C(\N)NC(=O)N3c4ccccc4Sc4ccccc43)nc2c1` the “hERG current change (%, negative = inhibition) at 10uM” value was 13.6%. For `COc1cccc(NC(=O)c2ccc(-c3ccccc3[N+](=O)[O-])o2)c1`, the “hERG current change (%, negative = inhibition) at 10uM” value was -46.1%. In the case of `Cc1cccc(Nc2n[nH]c(=S)s2)c1C`, the “hERG current change (%, negative = inhibition) at 10uM” value is reported as 19.2%. With `COc1ccc(-n2nc(C(=O)N3CCCCC3)c3ccccc3c2=O)cc1` the “hERG current change (%, negative = inhibition) at 10uM” value was -4.53%. `CCCCNC(=S)NNC(=O)c1c(C)nc2ccccn12` was tested, and the “hERG current change (%, negative = inhibition) at 10uM” value was 21.7%. With `CC(=O)N1CCSc2ccc(S(=O)(=O)NCc3ccc(F)cc3)cc21` the “hERG current change (%, negative = inhibition) at 10uM” value was -21.4%.
